According to a compilation of properties of binary mixtures (doi:10.1016/j.jct.2021.106484):
The densities may have been worked out from excess volumes.

Experiment: xn = mol fraction of the nth substance listed
Conditions: 100 kPa

Cn1cc[n+](CCO)c1.F[B-](F)(F)F + O
mass density [kg/m3]
Conditions	x1 = 0.0092	x1 = 0.0206	x1 = 0.0347	x1 = 0.0521	x1 = 0.0775	x1 = 0.114	x1 = 0.1639	x1 = 0.2531	x1 = 0.4278	x1 = 1
293.15 K	1027.4	1058.8	1096.4	1134.6	1170.3	1203.7	1239.5	1276.7	–	1368.5
298.15 K	1025.8	–	1094	–	–	1200.4	1236	1272.5	–	1363.3
303.15 K	1024.1	1054.7	1091.5	1129.1	1164.2	1197	1232.4	1269.3	–	1360
308.15 K	–	1052.4	1088.9	1126.2	–	1193.7	–	1265.5	–	1355.9
313.15 K	1020	–	1086.2	1123.2	–	1190.3	–	1261.8	–	1351.8
318.15 K	–	1047.5	–	1120.2	1154.4	1186.9	1221.5	1258.5	–	–
323.15 K	1015.3	–	–	1116.5	1151	–	1217.9	1254.4	1297.5	–

O + Cn1cc[n+](CCO)c1.F[B-](F)(F)F
Conditions	mass density [kg/m3]
323.15 K, x2 = 0	988
